# Assay results as given in article PMC4336329 (PLoS ONE, 2015).
# In all, about 310,000 compounds went through this assay and about 2,200 (0.71%) showed an effect of 50% or more. The effect is printed as a negative number. This is one part of the list.
# Molecular target: human ether-à-go-go-related gene (hERG) potassium channel (human, UniProt Q12809)
# Experiment: primary screen, population patch clamp on CHO cells stably expressing hERG
# Chain of human ether-à-go-go-related gene (hERG) potassium channel (Q12809 whole entry, looked up): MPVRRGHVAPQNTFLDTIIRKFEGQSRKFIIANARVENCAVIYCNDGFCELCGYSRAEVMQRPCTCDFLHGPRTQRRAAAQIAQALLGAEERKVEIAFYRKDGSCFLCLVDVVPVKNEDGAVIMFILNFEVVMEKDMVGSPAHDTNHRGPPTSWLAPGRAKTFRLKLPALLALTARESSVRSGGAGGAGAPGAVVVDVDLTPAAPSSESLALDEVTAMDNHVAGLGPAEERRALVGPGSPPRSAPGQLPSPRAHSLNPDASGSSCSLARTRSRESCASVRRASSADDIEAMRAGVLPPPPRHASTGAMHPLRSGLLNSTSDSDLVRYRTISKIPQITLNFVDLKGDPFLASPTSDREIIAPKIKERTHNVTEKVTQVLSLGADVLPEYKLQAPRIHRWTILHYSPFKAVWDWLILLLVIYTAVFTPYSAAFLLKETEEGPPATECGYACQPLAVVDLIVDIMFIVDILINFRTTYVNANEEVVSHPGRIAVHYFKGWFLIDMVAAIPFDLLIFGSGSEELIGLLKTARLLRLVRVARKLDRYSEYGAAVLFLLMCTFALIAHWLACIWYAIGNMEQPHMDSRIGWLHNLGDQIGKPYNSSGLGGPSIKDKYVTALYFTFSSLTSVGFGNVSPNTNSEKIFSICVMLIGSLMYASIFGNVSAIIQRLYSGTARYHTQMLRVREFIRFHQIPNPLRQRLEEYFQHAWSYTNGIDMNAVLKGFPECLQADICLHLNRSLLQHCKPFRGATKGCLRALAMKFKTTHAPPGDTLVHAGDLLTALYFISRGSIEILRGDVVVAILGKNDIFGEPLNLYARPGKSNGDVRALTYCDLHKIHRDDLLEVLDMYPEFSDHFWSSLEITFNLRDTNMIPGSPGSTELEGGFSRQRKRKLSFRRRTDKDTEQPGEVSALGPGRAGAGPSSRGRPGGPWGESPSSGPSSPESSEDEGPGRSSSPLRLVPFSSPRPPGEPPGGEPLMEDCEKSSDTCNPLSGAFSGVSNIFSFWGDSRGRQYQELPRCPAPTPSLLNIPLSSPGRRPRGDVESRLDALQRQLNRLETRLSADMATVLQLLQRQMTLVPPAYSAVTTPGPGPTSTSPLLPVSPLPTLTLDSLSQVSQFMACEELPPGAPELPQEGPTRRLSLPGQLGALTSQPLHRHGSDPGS
row,SMILES,"hERG current change (%, negative = inhibition) at 1uM"
1,Cc1ccc(-n2c(-c3cccnc3)n[nH]c2=S)c(C)c1,-3.04%
2,COc1ccc(/C=C/C(=O)NC(=S)Nc2ccccn2)cc1,1.3%
3,O=C(CN1C(=O)c2ccccc2S1(=O)=O)NCCSCc1cccc(Cl)c1,13.2%
4,CC(=O)c1sc(NC(=O)c2ccco2)nc1-c1ccccc1,13.6%
5,OC12CCCCC1C(c1ccc3c(c1)OCO3)N(Cc1ccc(F)cc1)CC2 (stereo not drawn),8.72%
6,CS(=O)(=O)CCC(C(=O)N1CCOCC1)N1C(=O)c2cc(Cl)c(Cl)cc2C1=O (stereo not drawn),13.8%
7,CCCn1c2ccccc2c2cnn(CC(=O)NCCOC)c(=O)c21,6.19%
8,CCc1ccc(/C=N/NC(=O)c2cc(-c3ccccc3OC)nc3ccccc23)s1,14.1%
9,CCC1CCCCN1c1nc(-c2cccc(OC)c2O)nc2ccccc12 (stereo not drawn),13.6%
10,COCCCNC(=O)CSc1nc2cc(C(=O)NCCOC)ccc2c(=O)n1Cc1ccc2c(c1)OCO2,7.01%
11,O=P(O)(O)c1cc(-c2ccccc2)oc1-c1ccccc1,14.7%
12,COc1ccc(OCc2n[nH]c(=S)n2-c2ccc(C)cc2)cc1,3.13%
13,COc1ccc(CCNC(=O)c2ccc(CN3CCOCC3)cc2)cc1,9.31%
14,Cc1ccc(-n2c(=O)c3sccc3n(CC(=O)N3CCCC3)c2=O)cc1,10.9%
15,CCC(=O)Nc1c(C)n[nH]c1C,14%
16,CSc1ccc(C(=O)C2CCCN(C(=O)Cc3nonc3C)C2)cc1 (stereo not drawn),1.07%
17,Cc1ccc(Cn2ccc(NC(=O)c3nn(C)cc3Cl)n2)cc1,0.725%
18,O=C(COc1ccc2c3c(c(=O)oc2c1)CCC3)NCC1CCC(C(=O)O)CC1 (stereo not drawn),18.7%
19,CC(=O)c1ccc(OCc2cc(C(=O)N(C)CCN3CCOCC3)no2)cc1,13.7%
20,COC1CCCN(C(=O)c2cccc(OC3CCN(S(=O)(=O)N(C)C)CC3)c2)C1 (stereo not drawn),19%
21,CC(=O)c1ccc(NC(=O)c2cccc(NC(=O)c3ccccc3)c2)cc1,12.5%
22,Cc1cc(C)c2oc(C(=O)N(Cc3ccccc3)C3CCS(=O)(=O)C3)cc(=O)c2c1 (stereo not drawn),7.34%
23,Cc1cc(Cl)cc(Cl)c1OCCOc1cccc2cccnc12,16.2%

row,SMILES,"hERG current change (%, negative = inhibition) at 1uM"
1,Cc1nn(C)c(C)c1/C=N/NC(=O)C(C)(C)Oc1ccc(Cl)cc1,8.86%
2,CCN(C(=O)/C=C/c1cc(OC)c(OC)c(OC)c1)C1CCCCC1,12.8%
3,O=C(COC(=O)/C=C/c1ccccc1)Nc1cccnc1Cl,9.3%
4,c1ccc(CNc2c3c(nc4ncnn24)CCCC3)nc1,-0.536%
5,O=C(CCn1nnnc1CN1CCOCC1)N1CCC(c2ccccc2F)C1 (stereo not drawn),3.83%
6,CCCCC(NC(=O)Cc1c(C)c2cc3c4c(oc3cc2oc1=O)CCCC4)C(=O)O (stereo not drawn),10.8%
7,CCc1ccc(-c2cc(C)no2)cc1S(=O)(=O)NCCc1ccc(OC)c(OC)c1,19.2%
8,COCCCNC(=O)c1cc(Sc2nnc(C)s2)nc2ccccc12,10.1%
9,CC1(C)OC(=O)C(=CNCC(O)c2ccccc2)C(=O)O1 (stereo not drawn),15.9%
10,COc1ccc(C(C(=O)NCCC(C)C)N(CCCO)C(=O)c2snc(C(N)=O)c2N)cc1OC (stereo not drawn),12.7%
11,CCOC(=O)c1sc(NC(=O)CSc2nccc(C)n2)c(C#N)c1C,7.98%
12,CCOCCCNC(=S)N(Cc1ccccc1)Cc1nc2ccccc2c(=O)[nH]1,3.8%
13,Cc1ccccc1Nc1nc(N)nc(COC(=O)CCNS(=O)(=O)c2ccccc2)n1,-1.7%
14,CCOC(=O)C1(C(F)(F)F)N=C(c2cccnc2)OC(N2CCOCC2)=N1 (stereo not drawn),12.8%
15,COc1ccc(Cl)cc1NC(=S)NCCC(c1ccccc1)c1ccccc1,9.05%
16,CN(C)C=NC(=O)c1cc(C(=O)c2ccc(Cl)cc2)c[nH]1,10.1%
17,CCOc1ccc(C=NCC(O)c2ccccc2)cc1 (stereo not drawn),11.3%
18,N/C(Cn1cncn1)=N\NC(=O)C(=O)Nc1cccc(C(F)(F)F)c1,14.3%
19,COc1ccc(CCNC(=O)CSc2nc(=O)[nH]c3c2CCC3)cc1OC,12.2%
20,CN(C)Cc1n[nH]c(=O)c2ccccc12,9.65%
21,Cc1ccc(S(=O)(=O)N(C)C)cc1NC(=S)NC1CCCC(C)C1C (stereo not drawn),14.3%
22,Cc1ccc(NC2CCCCC2NS(=O)(=O)c2ccccc2)c(C)c1 (stereo not drawn),14.3%
23,CCOC(=O)CC1(c2ccccc2)CCOC(C)(C)C1 (stereo not drawn),9.57%

row,SMILES,"hERG current change (%, negative = inhibition) at 1uM"
1,COc1cc2c(c(OC)c1OC)-c1ccc(O)c(=O)cc1C(NC(C)=O)CC2 (stereo not drawn),14.6%
2,Cn1cccc1/C=C1\SC(=O)N(c2ccccc2)C1=O,8.82%
3,Cc1ccc(-c2cc(C(F)(F)F)n3nc(C(=O)NCCCn4ccnc4)cc3n2)cc1C,-4.52%
4,NC(=O)c1nsc(C(=O)N(c2ccccc2)C(C(=O)NCC2CCCO2)c2ccc3ncccc3c2)c1N (stereo not drawn),2.27%
5,CCN(CC)C(=O)C(=O)N/N=C/c1ccc(C(=O)OC)cc1,9.14%
6,Fc1ccccc1/C=N/Nc1ncnc2ccccc12,10.9%
7,Cc1cc(C)nc(SC2=CS(=O)(=O)c3ccccc32)n1,8.75%
8,O=C(COC(=O)c1nc(Cl)ccc1Cl)NNC(=O)c1ccccc1,15.9%
9,COC(=O)CSc1ncnc2c1sc1nc3c(cc12)COC(C)(C)C3,18.3%
10,CCc1cc(-c2n[nH]c(CCC(=O)O)c2-c2nc3ccccc3n2C)c(O)cc1O,7.37%
11,O=C(O)c1ccc(CSc2nnc(-c3ccc(Cl)cc3)o2)cc1,19.6%
12,COc1cccc(COC(=O)c2ccc3c(=O)n4c(nc3c2)CCC4)c1OC,18.1%
13,O=[N+]([O-])c1ccc2nc(CCCO)[nH]c2c1,14.9%
14,COCCn1nnnc1CN1CCN(C(=O)c2ccco2)CC1,11.3%
15,O=C(NCCc1ccccc1)c1noc2c1CCc1ccccc1-2,7.76%
16,N/C(=N\OC(=O)c1ccc2c(c1)OCO2)c1ccc(Cl)cc1,-3.53%
17,COc1ccc(CCN=C(N)NS(=O)(=O)c2ccc(OC)cc2)cc1,16.3%
18,CCOC(Cn1cc(C)c(=O)[nH]c1=O)OCC,2.6%
19,COC(=O)C1=C(c2ccc(OCc3ccccc3)cc2)C[C@@H]2CC[C@H]1N2C(=O)NCCCc1ccccc1,12.2%
20,Cc1ccc2[nH]c3c(=O)n(CCN4CCNCC4)cnc3c2c1,18.5%
21,Cn1c(=O)c2c(nc(N3CCc4ccccc4C3)n2Cc2ccc(Br)cc2)n(C)c1=O,8.46%
22,OC(CN1CCN(c2ccc(C(F)(F)F)cn2)CC1)c1ccccc1 (stereo not drawn),-19.6%
23,COn1c(SCC(N)=O)nc2ccccc2c1=O,6.41%

row,SMILES,"hERG current change (%, negative = inhibition) at 1uM"
1,O=S(=O)(Nc1ccc(-n2cccc2)cc1)c1ccc(Cl)c(Cl)c1,12.3%
2,COc1cc(CN2CC=C(c3ccc(F)cc3)CC2)cc(OC)c1,12.3%
3,COc1ccccc1NC(=O)c1ccc2nc(C)c(C)nc2c1,2.94%
4,CCC1Oc2ccc(C)cc2N(CC(=O)NCCCN2CCCCC2C)C1=O (stereo not drawn),9.82%
5,COCCN1Cc2cccc(C(=O)NC(C)c3cccs3)c2C1=O (stereo not drawn),16.7%
6,CCN1CCN(c2c(Cl)cccc2NC(=O)c2ccc3c(c2)OCCO3)CC1,-4.39%
7,CCN(CC)S(=O)(=O)c1ccc(Cl)c(C(=O)NCCN2CCOCC2)c1.Cl,9.01%
8,CCOc1ccc(CNS(=O)(=O)c2cccs2)cc1OCC,12.7%
9,CCOC(=O)C(C)/C(C)=N\Nc1ccc([N+](=O)[O-])cc1[N+](=O)[O-] (stereo not drawn),-6.1%
10,CCOC(=O)C1CCN(S(=O)(=O)c2ccc(OC)c(Cl)c2)CC1,13%
11,O=C1CSC(c2ccccn2)N1c1ccc(Br)cc1 (stereo not drawn),8.41%
12,CC(C)(C)n1nnnc1C(c1ccc2ncccc2c1)N1CCSCC1 (stereo not drawn),-2.81%
13,O=C(N/C(=C/c1cccs1)C(=O)N1CCCCCC1)c1ccccc1,-1.95%
14,CCOC(=O)c1ccc(N/C=C2\CCCCC2=O)cc1,13.9%
15,COc1ccc2[nH]cc(/C=N/NS(=O)(=O)c3ccc(C)cc3)c2c1,-1.82%
16,CC(C)CCC(C)NC(=O)CN1C(=O)NC(C)(c2ccc3ccccc3c2)C1=O (stereo not drawn),14.5%
17,O=C(NCc1ccccn1)c1nn(-c2ccccc2)c(=O)c2ccccc12,4.59%
18,CCN(CC(=O)Nc1c(F)cccc1F)C(=O)CSc1ccccc1,15.9%
19,CN1C(=O)C(Cc2cccs2)C(=O)N(C)C1=O,15.2%
20,O=C(CN1CCN(c2ccccc2)CC1)Nc1cccc([N+](=O)[O-])c1,11%
21,CC(=O)C1=C(O)C(=O)N(c2ccc(O)cc2)C1c1cccc([N+](=O)[O-])c1 (stereo not drawn),18.2%
